Measurements from the supplement of paper PMC7826260.
This is one part of the list. One pool of 16,384 single-stranded DNAs met each Rep nickase domain in vitro (1 h at 37 °C, 3 µM enzyme); the outer parts of the 90-letter strands are left off. Values are log2 of uncut reads against the no-enzyme pool; more negative means more cut, near 0 not cut, and no call is made. Counts are relative to all reads; where an enzyme cuts many sequences, the uncut ones exceed 0.

What follows are sequences tested on T1, Rep nickase domain of tomato golden mosaic virus (assay: uncleaved DNA left, log2 of reads against the no-enzyme library (log2 ratio); higher = less cleavage (more negative = more Rep cleavage of the k-mer); sequences stand for … in CTCGTCCG…ACCGGAGA).
T1 sequence (Rep 1-124, printed without the tag): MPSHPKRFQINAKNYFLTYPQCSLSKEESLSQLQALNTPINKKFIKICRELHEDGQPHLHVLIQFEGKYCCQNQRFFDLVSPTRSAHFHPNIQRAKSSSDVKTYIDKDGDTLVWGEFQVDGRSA
Experimental: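 A pool of 90-nt single-stranded DNAs with seven random bases just before the constant AC of the nick site (name = the seven bases) was cut by 3 µM recombinant His6-SUMO-tagged Rep nickase domain (300 nM DNA, 50 mM HEPES pH 8.0, 50 mM NaCl, 1 mM MnCl2, 1 h, 37 °C, three replicates). Uncut DNA was amplified and sequenced.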

| Sequence | uncleaved DNA left (log2) |
| --- | --- |
| GGGAACA | 0.102 |
| CATACGC | -0.133 |
| AATCTTT | 0.028 |
| TGACATC | -0.162 |
| ACGTATT | -0.263 |
| AACGTCA | -0.0252 |
| CACTTAC | -0.132 |
| ATGAAGC | 0.0406 |
| ATCCAAG | -0.0049 |
| CCCGTCG | 0.175 |
| CCGCTAT | -0.111 |
| ATCGGGA | 0.107 |
| CTATCGC | -0.153 |
| GTGGACC | 0.134 |
| TCACAAA | 0.143 |
| GCTATGG | -0.00816 |
| CATGGAG | 0.142 |
| TACAATA | -0.00111 |
| TAGATTG | 0.0409 |
| TAGTTGT | -0.159 |

| Sequence | uncleaved DNA left (log2) |
| --- | --- |
| CTATAGC | -0.0569 |
| TGTCCAG | -0.168 |
| ATATAAG | 0.0768 |
| CCACTAT | -0.00706 |
| CAAGCAT | -0.041 |
| GCCGCCG | -0.11 |
| CGGCGTC | -0.042 |
| GACAGCT | 0.0064 |
| TGCACGG | 0.0441 |
| GTAGGAT | 0.037 |
| GTAACCG | -0.00465 |
| CGTGCTA | 0.108 |
| CTCTACA | -0.0863 |
| CACCATC | 0.0582 |
| TTTGGGC | -0.0831 |
| AAATTTT | -4.2 |
| TTACCTC | -0.0125 |
| CCGCGAC | 0.0744 |
| AATACCA | -0.0842 |
| GGGTTGA | -0.0963 |
